Data on 26 cell lines can be found in the supplement of paper PMC4967469.

A lower IC50 marks a more sensitive line; where the fit passes the top or lowest dose, that dose stands as a limit. AUC, from the same fit, is the share of area under the viability curve across the 256-fold dose range: 1 means no effect, lower means more sensitive. Where the top dose is marked as inferred, it comes from the curve model; the source does not state it.

Compound in the assay: C=CC(=O)Nc1cccc(Nc2nc(NC3CCC(N(C)C)CC3)nc3c2ncn3C(C)C)c1 [WZ3105]
Put plainly: Viability of human cancer cell lines after 72 h of drug (GDSC screen). The conditions noted are these: top dose inferred. The procedure:
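Human cancer cell lines in 384-well plates, medium with 10% serum, drug for 72 h over a 256-fold dose range (nine 2-fold or five 4-fold steps up to the top dose). Adherent lines were fixed and stained with the nucleic acid dye Syto60, suspension lines read with resazurin; signal relative to control wells, capped at 0 and 100%. One two-parameter sigmoid per drug and line, fitted in a mixed model over all curves with the slope shared within a line.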

On to “COLO-783 (melanoma, adherent, top dose 1.28 µM)”, for which the AUC was determined as 0.898 and the IC50 (in general, the concentration that inhibits the measured activity by half) was above 1280 nM.

As for “COLO-792 (melanoma, adherent, top dose 1.28 µM)”, the AUC is 0.91 and the half-inhibitory concentration (IC50) is above 1280 nM.

Turning to “COLO-800 (melanoma, adherent, top dose 1.28 µM)”, the AUC is 0.711 and the 50% inhibitory concentration (IC50) was found to be 309 nM.

As for “COLO-824 (breast, adherent, top dose 1.28 µM)”, the AUC was 0.706 and the IC50 was determined as 310 nM.

Take “COLO-829 (melanoma, adherent, top dose 1.28 µM)”: the AUC is 0.86 and the 50% inhibitory concentration (IC50) is above 1280 nM.

Take “COR-L23 (large cell lung carcinoma, adherent, top dose 1.28 µM)”: the AUC is 0.67 and the half-maximal inhibitory concentration (IC50) was 235 nM.

Consider “COR-L88 (small cell lung carcinoma, adherent, top dose 1.28 µM)”, for which the AUC was determined as 0.823 and the half-inhibitory concentration (IC50) is 954 nM.

For the cell line “COR-L95 (small cell lung carcinoma, adherent, top dose 1.28 µM)”, the AUC worked out at 0.717 and the IC50 was found to be 366 nM.

Consider “COR-L105 (lung adenocarcinoma, adherent, top dose 1.28 µM)”, for which the AUC was found to be 0.83 and the IC50 worked out at 1060 nM.

Turning to “COR-L279 (small cell lung carcinoma, suspension, top dose 1.28 µM)”, the AUC turned out to be 0.636 and the IC50 worked out at 181 nM.

Regarding “COR-L303 (small cell lung carcinoma, suspension, top dose 1.28 µM)”, the AUC is 0.676 and the IC50 is 244 nM.

Regarding “COR-L311 (small cell lung carcinoma, suspension, top dose 1.28 µM)”, the AUC was 0.515 and the IC50 is 88.2 nM.

Consider “COR-L321 (lung, suspension, top dose 1.28 µM)”, for which the AUC worked out at 0.702 and the IC50 is 296 nM.

For “CP50-MEL-B (melanoma, adherent, top dose 1.28 µM)”, the AUC amounted to 0.967 and the IC50 is above 1280 nM.

Consider “CP66-MEL (melanoma, adherent, top dose 1.28 µM)”, for which the AUC was 0.947 and the IC50 was above 1280 nM.

As for “CPC-N (small cell lung carcinoma, suspension, top dose 1.28 µM)”, the AUC worked out at 0.714 and the IC50 worked out at 344 nM.

Regarding CS1 (bone, adherent, top dose 1.28 µM), the AUC worked out at 0.569 and the IC50 stood at 126 nM.

As to “CTB-1 (B-cell lymphoma, suspension, top dose 1.28 µM)”, the AUC was found to be 0.467 and the IC50 is 63.1 nM.

Consider “CTV-1 (acute myeloid leukaemia, suspension, top dose 10.24 µM)”, for which the AUC is 0.199 and the IC50 was determined as 105 nM.

For the cell line “CW-2 (large intestine, adherent, top dose 10.24 µM)”, the AUC turned out to be 0.959 and the half-inhibitory concentration (IC50) is above 10200 nM.

With “Ca9-22 (head and neck, adherent, top dose 1.28 µM)”, the AUC came to 0.805 and the concentration for half-maximal inhibition (IC50) came out at 592 nM.

For “Ca-Ski (cervix, adherent, top dose 1.28 µM)”, the AUC was determined as 0.542 and the 50% inhibitory concentration (IC50) was determined as 106 nM.

Take “CaR-1 (large intestine, adherent, top dose 1.28 µM)”: the AUC is 0.836 and the IC50 is above 1280 nM.

Take “Calu-3 (lung adenocarcinoma, adherent, top dose 1.28 µM)”: the AUC stood at 0.971 and the half-inhibitory concentration (IC50) is above 1280 nM.

As for “Calu-6 (lung adenocarcinoma, adherent, top dose 10.24 µM)”, the AUC turned out to be 0.725 and the IC50 was 3090 nM.

As to “Caov-3 (ovary, adherent, top dose 1.28 µM)”, the AUC was 0.866 and the concentration for half-maximal inhibition (IC50) stood at 918 nM.
